# PubChem BioAssay AID1345082 (National Center for Advancing Translational Sciences (NCATS), 2018)
# Out of some 94,000 compounds screened, about 4,000 (4.3%) were called active. Inconclusive results, whose numbers are uncertain, are shown with a selection of clear calls. Calls come from the whole dose curve; as a rule, active = well fitted inhibition curve with a large enough effect; inconclusive = small, poorly fitted or top-dose-only effect; inactive = no such curve, though single readings can be large or run the other way. A potency beside an inconclusive call is a rough fit, not a confirmed value.
# Experiment: Cytotoxic Profiling in NIH 3T3 Cell Line of Diverse Libraries Using Quantitative High-Throughput Screening; note: nearly all actives have a fitted effect of over 55% in size
# Settings: NIH 3T3 viability, CellTiter-Glo ATP luminescence, 48-72 h; series mostly up to 96.7 µM
# Outline: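 Cells were seeded at 400 per well, treated with pin-transferred compound, and kept 48 or 72 hr at 37 °C before CellTiter-Glo addition and luminescence imaging of cellular ATP.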
# Potency is the fitted concentration of half-maximal effect; tags give direction and shape of the fitted curve.
row,Compound,Potency
1,OCC1(CCCc2ccccc2)CCN(Cc2ccc(-n3cccn3)cc2)CC1,active: 39.8 µM
2,CCn1nccc1C(=O)N1CCC2(CC1)N(C)C(=O)CS2(=O)=O,inactive
3,COC(=O)N1CCCC1C(=O)N1CCC(N2Cc3ccccc3C2=O)CC1 (stereo not given),inactive
4,COc1ccc(-c2cc(CC3(NCc4ccc(C)o4)COC3)no2)cc1,"inconclusive: 63.1 µM [inhibitor, full curve]"
5,Cc1ccc(CN2CCCC3(Cc4ccccc4CNC3=O)C2)cc1 (stereo not given),inactive
6,Cn1ncc2c(C(=O)NCc3cccc(Cl)c3)cc(-c3ccc(Cl)cc3Cl)nc21,inactive
7,CNC(=O)[C@@H]1[C@@H](OC(N)=O)C(=O)N(C)C12CCN(C(=O)c1ccccc1OC(F)(F)F)CC2,"inconclusive: 44.7 µM [inhibitor, partial curve, poor fit]"
8,COc1ccc(-c2cc(N3CCC(NC(=O)c4cccc(N(C)C)c4)C3)n[nH]2)cc1 (stereo not given),"inconclusive: 50.1 µM [inhibitor, single point]"
9,Cc1ccc(NC(=O)CCC2CCN(C(=O)c3ccccc3)CC2)cc1F,"inconclusive: 35.5 µM [inhibitor, partial curve, poor fit]"
10,C[C@H](C(=O)N1Cc2ccccc2CC2(CCN(CC3CCNCC3)CC2)C1)c1ccccc1,active: 14.1 µM
11,COc1ccc(-c2cnc([C@@H]3COCCN3Cc3ccccc3)[nH]2)cc1,"inconclusive: 89.1 µM [inhibitor, partial curve]"
12,O=C(NCc1ccco1)C1c2ccccc2C(=O)N(Cc2ccccc2)C12CCCC2 (stereo not given),"inconclusive: 50.1 µM [inhibitor, partial curve, poor fit]"
13,COC(=O)CNC(=O)c1nc2cccnc2n(-c2ccccc2OC)c1=O,inactive
14,COc1cccc(-c2cc(C(=O)NCCOc3ccccc3)[nH]n2)c1,"inconclusive: 56.2 µM [inhibitor, partial curve, poor fit]"
15,CN(C)c1cccc(-c2nc(N3CCOCC3)cc3c2CN(Cc2cnn(C)c2)C3=O)c1,active: 44.7 µM
16,O=C(Nc1ccccc1)c1nc2c(o1)CCN(Cc1cccnc1)CC2,"inconclusive: 56.2 µM [inhibitor, partial curve, poor fit]"
17,CCC(CC)C(=O)N1CCC(OC2CCN(C)CC2)CC1,inactive
18,O=C(c1ccccc1)N1CCN(Cc2ccccc2-c2cccnc2)CC1,"inconclusive: 50.1 µM [inhibitor, partial curve, poor fit]"
19,O=C(c1ccc(C(F)(F)F)cc1)N1CCCC(C(=O)N2CCC(c3ccccc3)CC2)C1 (stereo not given),"inconclusive: 50.1 µM [inhibitor, partial curve, poor fit]"
20,Cc1noc2c(NCCc3ccccn3)cc(-c3cccnc3)nc12,"inconclusive: 63.1 µM [inhibitor, partial curve, poor fit]"
21,CCCN1CCC2(CCN([S+](=O)([O-])c3cccc(OC)c3)CC2)Oc2ccccc21,"inconclusive: 28.2 µM [inhibitor, full curve, poor fit]"
22,O=C(CNC(=O)c1cccc(-c2ccc(C(F)(F)F)cc2)c1)NC1CCCC1,"inconclusive: 44.7 µM [inhibitor, partial curve, poor fit]"

row,Compound,Potency
1,Cc1cc(S(=O)(=O)N2CCCN(C)c3ccccc32)ccc1Cl,"inconclusive: 39.8 µM [inhibitor, partial curve, poor fit]"
2,Cc1ccc(-c2cc(N3CCCN(C(=O)COc4ccc(F)cc4)CC3)n[nH]2)cc1C,"inconclusive: 44.7 µM [inhibitor, partial curve, poor fit]"
3,CC(=O)N1CCN(C(=O)c2cnc3c(c2)N(C(=O)Cc2ccc(C(C)C)cc2)CCC3)CC1,"inconclusive: 35.5 µM [inhibitor, partial curve]"
4,COc1ccc(-c2noc([C@@H]3CCCN3C(=O)COc3cccc(C)c3)n2)cc1,"inconclusive: 50.1 µM [inhibitor, partial curve, poor fit]"
5,COCCNC(=O)c1cc(-c2ccccc2F)cc2c1OCCN2Cc1cccnc1,active: 89.1 µM
6,CCOC(=O)[C@H]1C[C@]2(CCCCN(CCOC(C)=O)C2=O)N(C(=O)c2ccccc2)[C@H]1c1ccco1,"inconclusive: 79.4 µM [inhibitor, partial curve, poor fit]"
7,O=C(NCCOc1ccccc1)c1nc2c(o1)CCN(Cc1cc(F)ccc1F)CC2,"inconclusive: 112 µM [inhibitor, single point]"
8,CNc1nc(C(=O)N2CCC3(CCCN(CCOC)C3=O)C2)cs1 (stereo not given),inactive
9,COCCn1c(=O)c(C(=O)N2CCN(C(=O)c3ccccc3F)CC2)nc2cccnc21,inactive
10,O=C(NCCc1ccccc1)c1ccc2nnc(-c3cc[nH]c3)n2c1,"inconclusive: 39.8 µM [inhibitor, partial curve, poor fit]"
11,CC(C)NC(=O)c1ccccc1OCC1CCCN(Cc2nccs2)C1 (stereo not given),"inconclusive: 44.7 µM [inhibitor, partial curve, poor fit]"
12,Clc1ccc(CNC[C@H]2Cn3c(-c4ccccc4)cnc3CO2)cc1,active: 89.1 µM
13,COC[C@@H]1OC[C@@]2(C)C3CC[C@@H](O)[C@@H](CC(=O)NCc4ccc(F)cc4)[C@]3(C)CC[C@H]2O1 (stereo not given in full),inactive
14,Cc1nc2ccccc2n1CC(=O)N[C@@H]1COCC[C@@H]1OCC1CC1,inactive
15,COCCCNC(=O)c1cc(-c2cccnc2)nc2c1cnn2C,"inconclusive: 89.1 µM [inhibitor, partial curve, poor fit]"
16,Cc1nc(CC2CCN(C(=O)c3cc4c(s3)CCC(C)C4)CC2)no1 (stereo not given),"inconclusive: 44.7 µM [inhibitor, partial curve]"
17,COc1cc(OC)cc(C(=O)N2CCC(c3n[nH]c(=O)n3-c3ccc(C)cc3)CC2)c1,active: 25.1 µM
18,CN(Cc1ccccc1)C(=O)[C@@H]1Cc2nc[nH]c2CN1C(=O)CC(C)(C)CC(=O)O,inactive
19,CC(=O)NCC1Cn2cccc2CN1Cc1ccccc1 (stereo not given),"inconclusive: 50.1 µM [inhibitor, partial curve, poor fit]"
20,O=C(C1CC(=O)N(c2n[nH]c3ccccc23)C1)N1CCC(c2noc3cc(F)ccc23)CC1 (stereo not given),active: 14.1 µM
21,CSc1nccc(N2CCC(c3nccn3Cc3cccnc3)CC2)n1,"inconclusive: 12.6 µM [inhibitor, full curve]"
22,O=C(Nc1cccc(F)c1)N1CCCC(c2nn[nH]n2)C1 (stereo not given),inactive

row,Compound,Potency
1,CN(C)CCN(C)C(=O)c1ccc2c(c1)NC(C)(COc1ccc3[nH]ccc3c1)CO2 (stereo not given),active: 79.4 µM
2,O=C(NCCc1ccc(Cl)cc1)c1ccc2nnc(-c3ccc(Cl)cc3Cl)n2c1,"inconclusive: 44.7 µM [inhibitor, partial curve, poor fit]"
3,COCCN[C@@H]1C[C@@H]2c3[nH]c4ccccc4c3C[C@@H](C(=O)OC)N2[C@H](c2ccc(C(F)(F)F)cc2)C1,active: 44.7 µM
4,CC(C)CN1CC2CCC(C1)N2c1ccc(C(F)(F)F)cc1,"inconclusive: 89.1 µM [inhibitor, single point]"
5,O=C(NC1CC(c2cc(=O)[nH]c(C3CC3)n2)C1)c1ccc2c(c1)CCCO2 (stereo not given),"inconclusive: 56.2 µM [inhibitor, partial curve, poor fit]"
6,COc1cccc(CN2CC3(C2)C(=O)N(Cc2cccc(Cl)c2)C(=O)[C@@H]2C[C@@H](O)CN23)c1,"inconclusive: 56.2 µM [inhibitor, partial curve, poor fit]"
7,CN1Cc2nc(-c3cc(F)cc(F)c3)ccc2OCC1=O,"inconclusive: 112 µM [inhibitor, single point]"
8,CNS(=O)(=O)c1ccc(CCC(=O)N2CC[C@H]3CC[C@@H](C2)N3)cc1,inactive
9,Cc1cccc(C)c1NC(=O)N(C)CC1CCOCC1,inactive
10,COCCNC(=O)[C@@H]1C[C@H](Oc2ccccc2)CN1C(=O)Cc1c[nH]c2ccccc12,inactive
11,O=C(C1CCN(Cc2ccccc2-c2ccccc2F)CC1)N1CCC(Cc2ccccc2)CC1,active: 35.5 µM
12,O=C(NC1CCCN(c2ccc3nnc(-c4ccccc4)n3n2)C1)c1ccc(F)cc1 (stereo not given),inactive
13,COc1ccc(Cn2c(=O)c(C(=O)N3CCOCC3)nc3cccnc32)cc1,inactive
14,CCOC(=O)[C@@H]1CN(C(=O)OCC)[C@H]2c3ccccc3O[C@@H]12,"inconclusive: 44.7 µM [inhibitor, partial curve, poor fit]"
15,CN(C)C(=O)NC1CCN(c2nccc(Nc3ccccc3F)n2)CC1,"inconclusive: 44.7 µM [inhibitor, partial curve, poor fit]"
16,CS(=O)(=O)N1CC2(CCCN2Cc2ccc(Cl)cc2)Cc2ccccc21 (stereo not given),"inconclusive: 44.7 µM [inhibitor, partial curve, poor fit]"
17,CN(C(=O)[C@@H]1C[C@@H](c2ccc(F)cc2)N([S+](=O)([O-])c2ccccc2)C1)c1cccnc1,"inconclusive: 89.1 µM [inhibitor, partial curve, poor fit]"
18,O=C(c1ccc2c(c1)OCO2)N1CCC2(CC1)CC(c1cccnc1)=NO2,inactive
19,COc1ccc(-c2cc(C(=O)NC3CCNCC3)c3c(C4CCCN4)noc3n2)cc1 (stereo not given),"inconclusive: 50.1 µM [inhibitor, partial curve, poor fit]"
20,Cc1ccc(CC(=O)N2CCc3[nH]nc(C(=O)NCCCc4ccccc4)c3C2)cc1,"inconclusive: 39.8 µM [inhibitor, partial curve, poor fit]"
21,CCCCOc1ccc(C(=O)N2CCC[C@H]2c2nc(-c3ccc(OC)cc3)no2)cc1,"inconclusive: 31.6 µM [inhibitor, partial curve]"
